Measured values as given in the supplement of paper PMC10369915.
The list shows a part of the results. Rule as the data show it: active = 3.2 or more and inactive = the rest. The signal is at background level for most entries.

How the values were obtained:
Experiment in all cases: enrichment score (SH2-bound / input frequency) (ratio); bacterial display of known human phosphotyrosine sites (pTyr-Var adds point mutants) read by sequencing; higher = stronger binding; tyrosines were phosphorylated by kinases first
Details in all cases: peptide library: Human pTyr
[1] = molecular target: SHP2 C-SH2 domain E139D
[2] = molecular target: SHP2 C-SH2 domain wild-type
[3] = molecular target: SHP2 N-SH2 domain L43F
[4] = molecular target: SHP2 N-SH2 domain T42A
[5] = molecular target: SHP2 N-SH2 domain T52S
[6] = molecular target: SHP2 N-SH2 domain wild-type

Measured: enrichment score
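Also: displayed peptides selected on beads carrying the immobilized SH2 domain, with library peptides lacking any tyrosine serving as negative controls.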

SKMQQNGYENPTYKF [A4_HUMAN_757]
inactive: [1] 0.964 | [2] 0.991 | [3] 0.893 | [4] 0.826 | [5] 0.927 | [6] 1.24

TNTGFPRYPNDSVAA [RET_HUMAN_1090_YA]
inactive: [1] 0.652 | [2] 0.746 | [3] 0.636 | [4] 0.647 | [5] 0.648 | [6] 0.637

TWIENKLYGRISHAF [RET_HUMAN_586]
inactive: [1] 1.41 | [2] 1.37 | [3] 1.31 | [4] 1.48 | [5] 0.855 | [6] 1.83

AQAFPVSYSSSGARR [RET_HUMAN_687]
inactive: [1] 0.538 | [2] 0.513 | [3] 0.615 | [4] 0.505 | [5] 0.816 | [6] 0.812

SRKVGPGYLGSGGSR [RET_HUMAN_826]
inactive: [1] 0.901 | [2] 0.644 | [3] 0.988 | [4] 0.682 | [5] 0.589 | [6] 0.815

DVAEEDSYVKRSQGR [RET_HUMAN_905_YA]
inactive: [1] 0.619 | [2] 0.519 | [3] 0.591 | [4] 0.622 | [5] 0.621 | [6] 0.892

ILRCNAEYVSSTLSL [RGMC_HUMAN_46]
inactive: [1] 1.36 | [2] 1.35 | [3] 1.31 | [4] 1.32 | [5] 1.45 | [6] 1.66

EEKARMIYEDYISIL [RGS17_HUMAN_137]
inactive: [1] 0.913 | [2] 1.19 | [3] 1.13 | [4] 1.14 | [5] 1.25 | [6] 1.25

DGFDPSDYAEPMDAV [RHG35_HUMAN_1087]
inactive: [1] 0.938 | [2] 0.765 | [3] 0.849 | [4] 1.01 | [5] 0.893 | [6] 0.975

ASPEAQDYVALEGTQ [RHG35_HUMAN_308_YA]
inactive: [1] 0.71 | [2] 0.669 | [3] 1.01 | [4] 0.897 | [5] 0.776 | [6] 0.92

MAVRIQAYDYLECSA [RHOB_HUMAN_154]
inactive: [1] 1.74 | [2] 1.87 | [3] 1.24 | [4] 1.67 | [5] 1.5 | [6] 1.72

MAVRIQAYDALECSA [RHOB_HUMAN_154_YA]
inactive: [1] 1.54 | [2] 1.04 | [3] 1.36 | [4] 1.18 | [5] 1.34 | [6] 1.43

KPAQDPLYDVPNASG [RIN1_HUMAN_36]
inactive: [1] 0.891 | [2] 0.627 | [3] 0.909 | [4] 0.747 | [5] 0.716 | [6] 0.824

NYRKVHPYEDSDSSE [RIOK3_HUMAN_122]
inactive: [1] 0.882 | [2] 0.801 | [3] 0.662 | [4] 0.964 | [5] 1.05 | [6] 1.16

NARKVHPYEDSDSSE [RIOK3_HUMAN_122_YA]
inactive: [1] 0.871 | [2] 0.761 | [3] 1.13 | [4] 0.95 | [5] 0.866 | [6] 0.786

DPKSYEAYVLNIVRF [AT1B1_HUMAN_101]
inactive: [1] 1.59 | [2] 1.45 | [3] 1.57 | [4] 1.58 | [5] 1.58 | [6] 1.71

KSSGEIVYCGQVFEK [RL18A_HUMAN_63]
inactive: [1] 1.35 | [2] 1.16 | [3] 1.21 | [4] 1.53 | [5] 1.4 | [6] 1.48

NTGAKNLYIISVKGI [RL23_HUMAN_38]
inactive: [1] 2.62 | [2] 2.51 | [3] 2.53 | [4] 2.15 | [5] 3 | [6] 3.16
